Assay results: ChEMBL document CHEMBL4888484, “Replenishing the malaria drug discovery pipeline: Screening and hit evaluation of the MMV Hit Generation Library 1 (HGL1) against asexual blood stage Plasmodium falciparum ,using a nano luciferase reporter read-out” (2022)
Screen size: about 150,000 compounds; about 540 (0.36%) showed an effect of 50% or more. Some of the results follow.

Each compound was assayed on Plasmodium falciparum (assay: Primary screen in NF54 nanoGlo assay, in single point, at 2uM, 72h; a lower Z score goes with more inhibition). Details: timepoint 72 hour.
Type: functional, Erythrocyte
`COc1ncc(NC(=O)c2ccc(Br)o2)cn1` was tested, and the “% Inhibition” value was 0% and the Z score was 0.
In the case of `O=C(CCc1cc2n(n1)CCCN(Cc1cccc(O)c1)C2)N1CCCC1`, the “% Inhibition” value is reported as -23% and the Z score is reported as 2.81.
`NC(=O)c1c(NC(=O)CN2CCC[C@H](CN3CCN(c4ccccn4)CC3)C2)sc2c1CCCC2` was tested, and the “% Inhibition” value was -1% and the Z score was 0.15.
With `C=CCNC(=O)CN(C)C1CCCCC1` the “% Inhibition” value was -4% and the Z score was 0.43.
In the case of `COc1ccc(-n2nc(C(=O)Nc3nc4ccc(OC)cc4s3)c3ccccc3c2=O)c(OC)c1`, the “% Inhibition” value is reported as 16% and the Z score is reported as -1.91.
In the case of `CN(C)CCN(C(=O)c1ccc(S(=O)(=O)N(C)C[C@H]2CCCO2)cc1)c1nc2c(F)cccc2s1`, the “% Inhibition” value is reported as 16% and the Z score is reported as -2.07.
With `Cc1cccc(CCNC(=O)NC2c3cccc(F)c3CCC2C)n1` (centres undefined) the “% Inhibition” value was -2% and the Z score was 0.16.
With `Cn1ccc2cccc(Cc3noc(C[C@H]4CCNC4=O)n3)c21` the “% Inhibition” value was -1% and the Z score was 0.16.
In the case of `C[C@@H]1CN(C(=O)CN2CCOCC2)CC[C@@]1(O)C1CCOCC1`, the “% Inhibition” value is reported as -8% and the Z score is reported as 1.33.
In the case of `CN1CCC[C@H](NC(=O)c2cc3ncccc3o2)c2ccccc21`, the “% Inhibition” value is reported as -14% and the Z score is reported as 1.87.
In the case of `CCc1ccc(N2C(=O)C3ON(c4ccccc4)C(c4cccc5ccccc45)C3C2=O)cc1` (centres undefined), the “% Inhibition” value is reported as -9% and the Z score is reported as 0.91.
For `O=C(N[C@@H](Cc1ccccc1)c1ccccc1)c1cc2n(n1)CCN(Cc1c(Cl)cccc1Cl)C2=O`, the “% Inhibition” value was 1% and the Z score was -0.29.
With `Cc1nccn1C[C@@H](C)CNC(=O)c1nc2n(n1)CCCN2` the “% Inhibition” value was -5% and the Z score was 0.53.
In the case of `Cc1cccc(N(CC(C)(C)C)C(=O)[C@H]2CCCO2)n1`, the “% Inhibition” value is reported as -3% and the Z score is reported as 0.37.
With `COc1ccc(-c2noc([C@@H]3CCCN3C(=O)c3cc4ccccc4[nH]3)n2)cc1OC` the “% Inhibition” value was -3% and the Z score was 0.38.
In the case of `O=C(Nc1cccc(F)c1)c1c(F)c(F)c2c(c1F)N(Cc1cccnc1)CCS2(=O)=O`, the “% Inhibition” value is reported as -7% and the Z score is reported as 0.91.
For `COc1ncc(C(=O)NCc2csc3c2CCCC3)cn1`, the “% Inhibition” value was -3% and the Z score was 0.41.
`Cc1cccc([C@H]2CCCN(C(=O)NCCCN3CCC(O)CC3)C2)c1` was tested, and the “% Inhibition” value was 10% and the Z score was -1.29.
`Cc1cc(C)nc(NC(=O)c2ccco2)n1` was tested, and the “% Inhibition” value was -10% and the Z score was 1.18.
With `COc1ccc(CNC(=O)CCc2c(C)nn(-c3ccc4nnc(C)n4n3)c2C)c(OC)c1` the “% Inhibition” value was 5% and the Z score was -0.63.
For `CCCC(=O)N1CCC(N(Cc2ccc(C)cc2)C(=O)CN(CCOC)S(=O)(=O)c2ccccc2)CC1`, the “% Inhibition” value was -5% and the Z score was 0.64.
`O=C1OCC[C@@H]1Oc1ncnc2ccccc12` was tested, and the “% Inhibition” value was -3% and the Z score was 0.47.
